Some of the results follow. At the low end of the ranking the order means little.

In this assay the target is T1, ELK1 (UniProt P19419).
T1 sequence: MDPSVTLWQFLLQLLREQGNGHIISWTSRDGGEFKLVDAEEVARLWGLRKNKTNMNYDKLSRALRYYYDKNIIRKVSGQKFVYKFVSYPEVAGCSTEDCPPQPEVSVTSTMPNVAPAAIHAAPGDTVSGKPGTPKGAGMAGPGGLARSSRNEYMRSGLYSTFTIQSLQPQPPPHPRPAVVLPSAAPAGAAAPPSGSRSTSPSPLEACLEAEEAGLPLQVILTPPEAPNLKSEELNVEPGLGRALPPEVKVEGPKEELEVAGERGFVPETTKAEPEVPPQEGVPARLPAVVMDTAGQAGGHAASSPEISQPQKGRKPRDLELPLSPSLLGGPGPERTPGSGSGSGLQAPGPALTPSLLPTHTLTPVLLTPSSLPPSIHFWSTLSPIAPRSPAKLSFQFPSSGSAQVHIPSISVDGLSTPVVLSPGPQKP
Kind of assay: custom PBM. The conditions noted are these: custom protein-binding microarray; buffer, salt, pH and temperature not stated; high values mean tight binding; double strand, one strand shown.
As to “CTGGGACTTGCCCCAACTCTGCCACGTGGGTCGTTTGTCTTGATTCGCTTGACGCTGCTG”, the binding signal (log fluorescence intensity) turned out to be 8.79.

Turning to “GATTAGTTTCTGCCCTTATTCGCACGTGCCATAACAGTCTTGATTCGCTTGACGCTGCTG”, the binding signal (log fluorescence intensity) is 8.93.

Consider “CGGAAGTGTCGTAAACGTCGGATATCCGGTTCTTCAGTCTTGATTCGCTTGACGCTGCTG”, for which the binding signal (log fluorescence intensity) worked out at 12.6.

Turning to “TGTCGGGTAAGGGAATGTAGATCACTTGAATGAAAAGTCTTGATTCGCTTGACGCTGCTG”, the binding signal (log fluorescence intensity) amounted to 8.78.

Regarding “CTGGGACTTGACCCACCTCTGCCACGTGGGTCGTTTGTCTTGATTCGCTTGACGCTGCTG”, the binding signal (log fluorescence intensity) stood at 8.7.

Regarding “TACTGACGTATATATGCGAATGCACATGAATAGACCGTCTTGATTCGCTTGACGCTGCTG”, the binding signal (log fluorescence intensity) is 8.77.

For “TAAAGGGAAGACGGTTGTGGTAGTTCCGGGTATTAAGTCTTGATTCGCTTGACGCTGCTG”, the binding signal (log fluorescence intensity) came to 11.1.

“TAAAAGGAAGACGGTTGTGGTAGTTCCGGGTATTAAGTCTTGATTCGCTTGACGCTGCTG”: the binding signal (log fluorescence intensity) was found to be 11.8.

For “CTGGGACTTGACCCAACTCTGCCACGAGGGTCGTTTGTCTTGATTCGCTTGACGCTGCTG”, the binding signal (log fluorescence intensity) is 8.74.

Regarding “TAAAGGGAAGACGGTTGCGGTAGTTCCGGGTATTAAGTCTTGATTCGCTTGACGCTGCTG”, the binding signal (log fluorescence intensity) came out at 11.3.

“GCTGCTGCGGTGCATACCCCACCGGATCTGACCCCGGTCTTGATTCGCTTGACGCTGCTG”: the binding signal (log fluorescence intensity) amounted to 9.38.

In the case of “GGAAAAAGGCCCAGTGTAACACCGGAAGTGGGCTTAGTCTTGATTCGCTTGACGCTGCTG”, the binding signal (log fluorescence intensity) is 10.9.

In the case of “CGGCAGTGTCGTAAACGTCGGATATCCGGTTCTTCTGTCTTGATTCGCTTGACGCTGCTG”, the binding signal (log fluorescence intensity) is 12.2.

Turning to “CAGCATAGGACTTCTTCCCTGCAGCAATTGATAACCGTCTTGATTCGCTTGACGCTGCTG”, the binding signal (log fluorescence intensity) came out at 8.88.

With “GATTAATTTCTGCCCTTACTCGCACGTGCCATAACAGTCTTGATTCGCTTGACGCTGCTG”, the binding signal (log fluorescence intensity) came to 8.76.

On to “CTGGGACTTGACCCCACTCTGCCACGTGGGTCGTTTGTCTTGATTCGCTTGACGCTGCTG”, for which the binding signal (log fluorescence intensity) is 8.7.

As to “CCGAAGTGTCGTAAACGTCGGATATCCGGTTCTTCTGTCTTGATTCGCTTGACGCTGCTG”, the binding signal (log fluorescence intensity) stood at 12.6.

Regarding “CGGAAGTGTCGTAAACGTCGGATATCCGGTTCCTCTGTCTTGATTCGCTTGACGCTGCTG”, the binding signal (log fluorescence intensity) was 12.5.

As to “TCTGGCTACCAGCTCCACCCACTTCAGGCCTTGTAGGTCTTGATTCGCTTGACGCTGCTG”, the binding signal (log fluorescence intensity) was found to be 8.82.

As for “CACAATTTTTACAGTAATGTAACACGCGTAACTCCTGTCTTGATTCGCTTGACGCTGCTG”, the binding signal (log fluorescence intensity) is 8.98.

In the case of “TGTCGGGTAAGGTAATGTAGATCACGTGAATGAAAAGTCTTGATTCGCTTGACGCTGCTG”, the binding signal (log fluorescence intensity) was found to be 8.86.

In the case of “TAAAGGGAAGACGGTTGTGGTAGTTCCTGGTATTAAGTCTTGATTCGCTTGACGCTGCTG”, the binding signal (log fluorescence intensity) was found to be 9.32.

Consider “GCTGCTGCGGTGCATCCCCCACCGGATGTGACCCCGGTCTTGATTCGCTTGACGCTGCTG”, for which the binding signal (log fluorescence intensity) was found to be 10.3.

As to “TAAAGTGAAGACGGTTGTGGTAGTTCCGGGTATTAAGTCTTGATTCGCTTGACGCTGCTG”, the binding signal (log fluorescence intensity) was 11.

For the sequence “TGTCGGGTAAGGGAATGTAGATCACGTGAATGAAACGTCTTGATTCGCTTGACGCTGCTG”, the binding signal (log fluorescence intensity) worked out at 8.81.

On to “GGAAAAAGGCCCAGGGTAACACCGGAAGTGGGGTTAGTCTTGATTCGCTTGACGCTGCTG”, for which the binding signal (log fluorescence intensity) was found to be 10.9.

For “TAAAGGGAAGACGGTTGTGGTAGTCCCGGGTATTAAGTCTTGATTCGCTTGACGCTGCTG”, the binding signal (log fluorescence intensity) was 8.96.

“GGAAAAAGGCCCAGGGGAACACCGGAAGTGGGCTTAGTCTTGATTCGCTTGACGCTGCTG”: the binding signal (log fluorescence intensity) is 10.7.

For “TGCCGGGTAAGGGAATGTAGATCACGTGAATGAAAAGTCTTGATTCGCTTGACGCTGCTG”, the binding signal (log fluorescence intensity) worked out at 8.85.

In the case of “GTGTATAGGTTCCCATCCAACACACGTGTTAAAATGGTCTTGATTCGCTTGACGCTGCTG”, the binding signal (log fluorescence intensity) was 8.89.

Regarding “TATAGGGAAGACGGTTGTGGTAGTTCCGGGTATTAAGTCTTGATTCGCTTGACGCTGCTG”, the binding signal (log fluorescence intensity) came out at 11.2.

“GATTACTTTCTGCCCTTATTCGCACGTGCCATAACAGTCTTGATTCGCTTGACGCTGCTG”: the binding signal (log fluorescence intensity) amounted to 8.82.

“TACTGACTTATATATGTGAATGCACATGAATAGACCGTCTTGATTCGCTTGACGCTGCTG”: the binding signal (log fluorescence intensity) turned out to be 8.85.

For “CGGAAGTGTCGTATACGTCGGATATCCGGTTCTTCTGTCTTGATTCGCTTGACGCTGCTG”, the binding signal (log fluorescence intensity) turned out to be 12.5.

Take “GCTGCTGCGGTGCATACCCCACCGGATGTGACCTCGGTCTTGATTCGCTTGACGCTGCTG”: the binding signal (log fluorescence intensity) is 10.1.

Take “GGAAAAAAGCCCAGGGTAACACCGGAAGTGGGCTTAGTCTTGATTCGCTTGACGCTGCTG”: the binding signal (log fluorescence intensity) came out at 10.8.

“CACATTTTTTACAGTAATGTAGCACGCGTAACTCCTGTCTTGATTCGCTTGACGCTGCTG”: the binding signal (log fluorescence intensity) amounted to 8.86.

As for “GTGTATAGGATCCCATCCAAGACACGTGTTAAAATGGTCTTGATTCGCTTGACGCTGCTG”, the binding signal (log fluorescence intensity) was found to be 8.91.

With “GTGTATAGGATCCCATCCAACACACGTGTTAAAGTGGTCTTGATTCGCTTGACGCTGCTG”, the binding signal (log fluorescence intensity) amounted to 8.86.

For the sequence “CACAATTTGTACAGTAATGTAGCACGCGTAACTCCTGTCTTGATTCGCTTGACGCTGCTG”, the binding signal (log fluorescence intensity) was found to be 8.91.

Turning to “TAAAGGGAAGACGGTTGTGGTAGCTCCGGGTATTAAGTCTTGATTCGCTTGACGCTGCTG”, the binding signal (log fluorescence intensity) is 9.01.

Values taken from publication PMC6602471.
